Here are results for 37 sequences from paper PMC5892938.

This is one part of the list. At the low end of the ranking, values are background and their order means little.

The assay has as its target GST-SBP-SLBP (stem-loop binding protein) (UniProt Q14493). Put plainly: targeted RNA Bind-n-Seq.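 Further: DESeq read counts versus GST-SBP nonspecific binding control pulldown.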 Particulars: RBNS binding buffer: 25 mM Tris pH 7.5, 150 mM KCl, 3 mM MgCl2, 0.1% Tween, 0.5 mg/mL BSA, 1 mM DTT; 27 nM protein, 750 pM RNA pool; temperature not stated; high values mean tight binding.
For the sequence “GGUCACGUCUCAAUCAACUCUACUUCAGGAGUUUCCUCCUGUAUUUUCAACAGCUCGCAGUCAAG”, the binding signal (log2 fold change) is -0.132.

In the case of “GGUCACGUCUCAAUCAACUCUACUUCAGGAGUUUACUCCUGUAUACUCAACAGCUCGCAGUCAAG”, the binding signal (log2 fold change) worked out at 0.0242.

As for “GGUCACGUCUCAAUCAACUCAUUUCCAGGAGUUUACUCCUGCAUUUUCAACAGCUCGCAGUCAAG”, the binding signal (log2 fold change) was -0.0545.

For “GGUCACGUCUCAAUCAACUCUUUCGAGGGGGGGAAAACCCCUUUACCCUCUCAUUCAACAGCUCGCAGUCAAG”, the binding signal (log2 fold change) was -0.0772.

Turning to “GGUCACGUCUCAAUCAACUCUUCUUCCAGGGAAAUCCCUGGCAAAUUCAACAGCUCGCAGUCAAG”, the binding signal (log2 fold change) worked out at 0.0914.

“GGUCACGUCUCAAUCAACUCAACUUCAGGAGUUUACUCCUGCUUUUUCAACAGCUCGCAGUCAAG”: the binding signal (log2 fold change) was -0.195.

Turning to “GGUCACGUCUCAAUCAACUCAUUCGAGGGGGGGAAAACCCCUUUACCCUCUUUAUCAACAGCUCGCAGUCAAG”, the binding signal (log2 fold change) is -0.487.

With “GGUCACGUCUCAAUCAACUCAUUAGAGGGGGGGAAAACCCCUUUACCCUCACUAUCAACAGCUCGCAGUCAAG”, the binding signal (log2 fold change) was determined as 0.122.

Consider “GGUCACGUCUCAAUCAACUCAAUUUCAGGAGUUUACUCCUGUUAACUCAACAGCUCGCAGUCAAG”, for which the binding signal (log2 fold change) is 0.158.

Regarding “GGUCACGUCUCAAUCAACUCAUUCUCCAGGGAAACCCCUGGCUAUCUCAACAGCUCGCAGUCAAG”, the binding signal (log2 fold change) stood at 0.176.

Turning to “GGUCACGUCUCAAUCAACUCAUCCUCAGGAGUUUUCUCCUGCUAAGUCAACAGCUCGCAGUCAAG”, the binding signal (log2 fold change) worked out at 0.0588.

For the sequence “GGUCACGUCUCAAUCAACUCUUCGUCCAGGGAAAACCCUGGCUUAUUCAACAGCUCGCAGUCAAG”, the binding signal (log2 fold change) came out at 0.00619.

On to “GGUCACGUCUCAAUCAACUCGUUUUCAGGAGUUUACUCCUGCUUUUUCAACAGCUCGCAGUCAAG”, for which the binding signal (log2 fold change) was -0.0659.

On to “GGUCACGUCUCAAUCAACUCCUUAGAGGGGGGGAAAACCCCUUUACCCUCACCGUCAACAGCUCGCAGUCAAG”, for which the binding signal (log2 fold change) is -0.0529.

Take “GGUCACGUCUCAAUCAACUCAUCUUCAGGAGUUUACUCCUGUUAAUUCAACAGCUCGCAGUCAAG”: the binding signal (log2 fold change) is -0.00644.

On to “GGUCACGUCUCAAUCAACUCUUUAGAGGGGGGGAAAACCCCUUUGCCCUCGUUUUCAACAGCUCGCAGUCAAG”, for which the binding signal (log2 fold change) was determined as 0.083.

As for “GGUCACGUCUCAAUCAACUCUUCAGAGGGGGGGAAAACCCCUUUACCCUCAUCCUCAACAGCUCGCAGUCAAG”, the binding signal (log2 fold change) was -0.175.

On to “GGUCACGUCUCAAUCAACUCAUCCUCCAGGGAAAACCCUGGCAUACUCAACAGCUCGCAGUCAAG”, for which the binding signal (log2 fold change) was -0.167.

As to “GGUCACGUCUCAAUCAACUCUAUCGCAGGAGUUUUCUCCUGGUAACUCAACAGCUCGCAGUCAAG”, the binding signal (log2 fold change) was -0.0754.

Turning to “GGUCACGUCUCAAUCAACUCAUUCUCAGGAGUUUUCUCCUGCUUACUCAACAGCUCGCAGUCAAG”, the binding signal (log2 fold change) is -0.0853.

As for “GGUCACGUCUCAAUCAACUCAUCUUCCAGGGAAAUCCCUGGUUAACUCAACAGCUCGCAGUCAAG”, the binding signal (log2 fold change) is -0.114.

Take “GGUCACGUCUCAAUCAACUCAAUUUCAGGAGUUUACUCCUGUAUAGUCAACAGCUCGCAGUCAAG”: the binding signal (log2 fold change) was found to be 0.0899.

“GGUCACGUCUCAAUCAACUCUUACGAGGGGGGGAAAACCCCUUUACCCUCACUCUCAACAGCUCGCAGUCAAG”: the binding signal (log2 fold change) is 0.113.

For the sequence “GGUCACGUCUCAAUCAACUCAUCUUCCAGGGAAAUCCCUGGCUUUUUCAACAGCUCGCAGUCAAG”, the binding signal (log2 fold change) is -0.144.

With “GGUCACGUCUCAAUCAACUCAAUUCCCAGGGAAAGCCCUGGCAUUCUCAACAGCUCGCAGUCAAG”, the binding signal (log2 fold change) is 0.08.

As to “GGUCACGUCUCAAUCAACUCCUACGAGGGGGGGAAAACCCCUUUACCCUCAAUAUCAACAGCUCGCAGUCAAG”, the binding signal (log2 fold change) came to 0.24.

Regarding “GGUCACGUCUCAAUCAACUCAUUCCCAGGAGUUUUCUCCUGCAUUUUCAACAGCUCGCAGUCAAG”, the binding signal (log2 fold change) was -0.261.

For “GGUCACGUCUCAAUCAACUCUCUCGAGGGGGGGAAAACCCCUUUACCCUCAAUCUCAACAGCUCGCAGUCAAG”, the binding signal (log2 fold change) is -0.295.

Turning to “GGUCACGUCUCAAUCAACUCAUCUUCCAGGGAAAUCCCUGGUUAUCUCAACAGCUCGCAGUCAAG”, the binding signal (log2 fold change) was found to be 0.0117.

Regarding “GGUCACGUCUCAAUCAACUCAAUUCCCAGGGAAACCCCUGGUUUUCUCAACAGCUCGCAGUCAAG”, the binding signal (log2 fold change) was -0.137.

With “GGUCACGUCUCAAUCAACUCUACUCCCAGGGAAAACCCUGGCAAUCUCAACAGCUCGCAGUCAAG”, the binding signal (log2 fold change) came out at 0.0103.

Regarding “GGUCACGUCUCAAUCAACUCUUCUUCCAGGGAAACCCCUGGCAUUCUCAACAGCUCGCAGUCAAG”, the binding signal (log2 fold change) is -0.0553.

As to “GGUCACGUCUCAAUCAACUCCAUCGAGGGGGGGAAAACCCCUUUACCCUCCAAUUCAACAGCUCGCAGUCAAG”, the binding signal (log2 fold change) stood at 0.49.

For “GGUCACGUCUCAAUCAACUCAACUUCCAGGGAAACCCCUGGCGUAUUCAACAGCUCGCAGUCAAG”, the binding signal (log2 fold change) was 0.0823.

Regarding “GGUCACGUCUCAAUCAACUCAUCCCCAGGAGUUUUCUCCUGCUUUCUCAACAGCUCGCAGUCAAG”, the binding signal (log2 fold change) was -0.0579.

For the sequence “GGUCACGUCUCAAUCAACUCAUACGAGGGGGGGAAAACCCCUUUGCCCUCAUCUUCAACAGCUCGCAGUCAAG”, the binding signal (log2 fold change) was -0.363.

With “GGUCACGUCUCAAUCAACUCUUUCCCCAGGGAAACCCCUGGCUAUCUCAACAGCUCGCAGUCAAG”, the binding signal (log2 fold change) was found to be 0.104.
